Values joined by “and” are separate entries in the source; they are usually repeats but may differ in a detail not shown here. Equal values may be shown once. In all, about 5,300 compounds were measured (“PER2::LUC luminescence relative to vehicle control”: median about 0.96, highest 2% from about 1.3 on). Some of the results follow.

For the assay, the system named is mPer2Luc MEF. The assay is described as follows: PER2::LUC luminescence relative to vehicle control (fold of vehicle); higher = higher PER2::LUC reporter signal. The settings on record: 10 µM. The method in brief:
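Each value gives PER2::LUC luminescence as fold of vehicle control, measured with the ONE-Glo luciferase assay system in mouse embryonic fibroblasts carrying the mPer2Luc reporter. Cells grown in DMEM with 10% FBS at 37 °C and 5% CO2 were seeded at ~3000 per well in 384-well plates. Library compounds were added at 10 μM 48 h later, and readings were taken 24 h and 30 h after treatment.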

On to `COc1cc(/C=C/C(=O)c2ccc(O)cc2O)ccc1O`, for which the “PER2::LUC luminescence” value by setting is: (time after treatment 24 h) 1.02; (time after treatment 30 h) 1.04.

On to `CN1CCC(=C2c3ccccc3CC(=O)c3sccc32)CC1`, for which the “PER2::LUC luminescence” value reads like this: (time after treatment 24 h) 0.913; (time after treatment 30 h) 0.838.

`COc1ccccc1N1CCN(CC(O)COc2cccc3ccccc23)CC1` (stereo not drawn): the “PER2::LUC luminescence” value is 0.979 and 0.717 (time after treatment 24 h); 1.03 and 0.991 (time after treatment 30 h).

On to `Nc1nc(N)c2nc(-c3cccc(O)c3)cnc2n1`, for which the “PER2::LUC luminescence” value (time after treatment 24 h) came to 0.78 and the “PER2::LUC luminescence” value (time after treatment 30 h) was found to be 0.636.

With `CCN1C(=O)NC(c2ccccc2)C1=O` (stereo not drawn), the “PER2::LUC luminescence” value came out at 0.986 (time after treatment 24 h) and 0.921 (time after treatment 30 h).

In the case of `CCCN(CCC)C(=O)C(CCC(=O)O)NC(=O)c1ccccc1` (stereo not drawn), the “PER2::LUC luminescence” value by setting is: (time after treatment 24 h) 0.645; (time after treatment 30 h) 0.966.

Consider `CCCCC[C@H](CC(=O)O)C(=O)O`, for which the “PER2::LUC luminescence” value by setting is: (time after treatment 24 h) 1.03; (time after treatment 30 h) 0.945.

Take `CC[C@H](CC[C@@H](C)[C@H]1CC[C@H]2[C@@H]3CC=C4C[C@@H](O)CC[C@]4(C)[C@H]3CC[C@]12C)C(C)C`: the “PER2::LUC luminescence” value is, setting by setting: (time after treatment 24 h) 0.951; (time after treatment 30 h) 0.934.

On to `O=C(O)CC[C@H]1CC[C@@](c2cc(F)ccc2F)(S(=O)(=O)c2ccc(Cl)cc2)CC1`, for which the “PER2::LUC luminescence” value is, setting by setting: (time after treatment 24 h) 1.19; (time after treatment 30 h) 0.985.

Regarding `COC(=O)c1ccccc1O`, the “PER2::LUC luminescence” value (time after treatment 24 h) stood at 0.863 and the “PER2::LUC luminescence” value (time after treatment 30 h) was 0.993.

Consider `CCCNC[C@]1(O)[C@H](C)O[C@@H](O[C@H]2[C@H](C)[C@@H](O[C@@H]3O[C@H](C)C[C@H](N(C)C)[C@H]3O)[C@](C)(O)C[C@@H](C)CN[C@H](C)[C@@H](O)[C@](C)(O)[C@@H](CC)OC(=O)[C@@H]2C)C[C@@]1(C)OC`, for which the “PER2::LUC luminescence” value reads like this: (time after treatment 24 h) 1.05; (time after treatment 30 h) 0.881.

Turning to `O=C[C@H](O)[C@H](O)CO`, the “PER2::LUC luminescence” value was determined as 0.921 (time after treatment 24 h) and 0.987 (time after treatment 30 h).

As to `O.O.O.O.O=C([O-])CC(O)(CC(=O)[O-])C(=O)[O-].[Li+].[Li+].[Li+]`, the “PER2::LUC luminescence” value is, setting by setting: (time after treatment 24 h) 1.02; (time after treatment 30 h) 1.04.

Take `N#CC(c1ccc(Cl)cc1)c1c(Cl)cc(-n2ncc(=O)[nH]c2=O)cc1Cl` (stereo not drawn): the “PER2::LUC luminescence” value by setting is: (time after treatment 24 h) 0.707; (time after treatment 30 h) 0.715.

As to `OCc1cc([C@@H](O)CNCCCCCCOCCOCc2c(Cl)cccc2Cl)ccc1O`, the “PER2::LUC luminescence” value reads like this: (time after treatment 24 h) 0.952; (time after treatment 30 h) 0.868.

Take `CCOc1ccc(-n2c(C(C)N(Cc3cccnc3)C(=O)Cc3ccc(F)c(C(F)(F)F)c3)nc3ncccc3c2=O)cc1` (stereo not drawn): the “PER2::LUC luminescence” value turned out to be 0.976 (time after treatment 24 h) and 0.903 (time after treatment 30 h).

With `O=c1ccc2ccc(O)c(O)c2o1`, the “PER2::LUC luminescence” value reads like this: (time after treatment 24 h) 1.11; (time after treatment 30 h) 1.18.

Take `CC(=O)NCCc1c[nH]c2ccc(O)cc12`: the “PER2::LUC luminescence” value is, setting by setting: (time after treatment 24 h) 0.952; (time after treatment 30 h) 1.13.

Take `COc1cc(OC)c(C(=O)CCCN2CCCC2)c(OC)c1`: the “PER2::LUC luminescence” value is 0.87 (time after treatment 24 h) and 0.877 (time after treatment 30 h).

On to `COc1ccc(CCNCc2ccc(OCc3ccc(Cl)nc3)c(OC)c2)cc1OC`, for which the “PER2::LUC luminescence” value is 0.934 (time after treatment 24 h) and 0.821 (time after treatment 30 h).

Turning to `OCC1=C[C@@H](O)[C@@H]2C=CO[C@@H](O[C@@H]3O[C@H](CO)[C@@H](O)[C@H](O)[C@H]3O)[C@H]12`, the “PER2::LUC luminescence” value by setting is: (time after treatment 24 h) 1.05; (time after treatment 30 h) 0.988.

For `CCOc1ccc(Cc2cc([C@@H]3O[C@H](SC)[C@@H](O)[C@H](O)[C@H]3O)ccc2Cl)cc1`, the “PER2::LUC luminescence” value by setting is: (time after treatment 24 h) 0.997; (time after treatment 30 h) 0.927.

As for `CC(C)(C)C(=O)OCOP(=O)(COCCn1cnc2c(N)ncnc21)OCOC(=O)C(C)(C)C`, the “PER2::LUC luminescence” value by setting is: (time after treatment 24 h) 0.711; (time after treatment 30 h) 0.646.

As for `COc1cc(-c2coc3cc(OC)c(OC)c(OC)c3c2=O)cc(OC)c1OC`, the “PER2::LUC luminescence” value is, setting by setting: (time after treatment 24 h) 0.972; (time after treatment 30 h) 0.969.

As to `C=CC(=O)Nc1cccc(Nc2nc(Nc3ccc(N4CCN(C(C)=O)CC4)cc3OC)ncc2C(F)(F)F)c1`, the “PER2::LUC luminescence” value is, setting by setting: (time after treatment 24 h) 0.361; (time after treatment 30 h) 0.32.

As for `O=C(Nc1ccc(O)cc1)c1ccccc1O`, the “PER2::LUC luminescence” value (time after treatment 24 h) was determined as 1.07 and the “PER2::LUC luminescence” value (time after treatment 30 h) is 1.07.

For `CS(=O)(=O)CCNCc1ccc(-c2ccc3ncnc(Nc4ccc(OCc5cccc(F)c5)c(Cl)c4)c3c2)o1`, the “PER2::LUC luminescence” value was 0.735 and 0.687 (time after treatment 24 h); 0.648 and 0.654 (time after treatment 30 h).

As for `Nc1ccc(-c2nc3ccc(-c4nc5ccc(N)cc5[nH]4)cc3[nH]2)cc1`, the “PER2::LUC luminescence” value worked out at 0.876 (time after treatment 24 h) and 0.866 (time after treatment 30 h).

Take `CC1Nc2ccc(Cl)cc2S(=O)(=O)N1` (stereo not drawn): the “PER2::LUC luminescence” value (time after treatment 24 h) worked out at 0.966 and the “PER2::LUC luminescence” value (time after treatment 30 h) was determined as 0.916.

On to `CCC(=O)c1ccc(O)cc1`, for which the “PER2::LUC luminescence” value reads like this: (time after treatment 24 h) 1.04; (time after treatment 30 h) 1.04.

For `Nc1c(Br)cc(Br)cc1CN[C@H]1CC[C@H](O)CC1`, the “PER2::LUC luminescence” value by setting is: (time after treatment 24 h) 0.939 and 0.929; (time after treatment 30 h) 0.89 and 0.646.

Take `Oc1ccc(Cl)c2cccnc12`: the “PER2::LUC luminescence” value was 1.09 and 0.977 (time after treatment 24 h); 0.936 and 0.861 (time after treatment 30 h).

As for `Cn1ccnc1S`, the “PER2::LUC luminescence” value runs as follows: (time after treatment 24 h) 0.758; (time after treatment 30 h) 1.14.

As to `C[C@]12CCC3c4ccc(OC(=O)c5ccccc5)cc4CCC3C1CCC2=O` (stereo partly drawn), the “PER2::LUC luminescence” value is 1.13 (time after treatment 24 h) and 1.11 (time after treatment 30 h).

As for `CN1CCc2ccccc2Cc2[nH]c3ccccc3c2CC1`, the “PER2::LUC luminescence” value (time after treatment 24 h) stood at 1.11 and the “PER2::LUC luminescence” value (time after treatment 30 h) stood at 0.824.

Turning to `Cc1cccc(-c2[nH]ncc2-c2ccnc3ccccc23)n1`, the “PER2::LUC luminescence” value was 0.792 and 0.444 (time after treatment 24 h); 0.659 and 0.608 (time after treatment 30 h).

On to `CC(C)(Sc1cc(C(C)(C)C)c(O)c(C(C)(C)C)c1)Sc1cc(C(C)(C)C)c(O)c(C(C)(C)C)c1`, for which the “PER2::LUC luminescence” value is, setting by setting: (time after treatment 24 h) 0.979; (time after treatment 30 h) 0.805.

Regarding `Clc1ccc(N/N=C(/c2ccccc2)c2ccccn2)nc1`, the “PER2::LUC luminescence” value is 0.832 (time after treatment 24 h) and 0.785 (time after treatment 30 h).

As for `CCCCCCCCCCCCCC/C(C(=O)O)=C(\C)C(=O)O`, the “PER2::LUC luminescence” value is, setting by setting: (time after treatment 24 h) 1.12; (time after treatment 30 h) 1.03.

For `O=c1cc(N2CCNCC2)oc2c(-c3ccccc3)cccc12`, the “PER2::LUC luminescence” value was determined as 0.722 (time after treatment 24 h) and 0.683 (time after treatment 30 h).

Regarding `CCC[C@H](Nc1nc(-c2ccc(NC(=O)NCC)c(OC)c2)ncc1C)c1cccnc1`, the “PER2::LUC luminescence” value by setting is: (time after treatment 24 h) 0.234 and 0.212; (time after treatment 30 h) 0.33 and 0.268.

With `N[C@@H](Cn1ccc(=O)c(O)c1)C(=O)O`, the “PER2::LUC luminescence” value runs as follows: (time after treatment 24 h) 1.02; (time after treatment 30 h) 0.995.

For the compound `CC(=O)NO`, the “PER2::LUC luminescence” value (time after treatment 24 h) amounted to 0.947 and the “PER2::LUC luminescence” value (time after treatment 30 h) came out at 0.848.

`O=NO`: the “PER2::LUC luminescence” value (time after treatment 24 h) was determined as 1.04 and the “PER2::LUC luminescence” value (time after treatment 30 h) came to 0.972.

These data come from the supplement of paper PMC9334596.
